Laboratory results reported in article PMC4336329 (PLoS ONE, 2015).
In all, about 310,000 compounds went through this assay and about 14,000 (4.5%) showed an effect of 50% or more. Effects have a minus sign here. Some of the results follow.

What follows are compounds tested against human ether-à-go-go-related gene (hERG) potassium channel (human, UniProt Q12809) (assay: primary screen, population patch clamp on CHO cells stably expressing hERG).
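Also: peak tail current of the secondary pulse compared with the same well before compound.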

human ether-à-go-go-related gene (hERG) potassium channel, sequence (Q12809 whole entry, looked up): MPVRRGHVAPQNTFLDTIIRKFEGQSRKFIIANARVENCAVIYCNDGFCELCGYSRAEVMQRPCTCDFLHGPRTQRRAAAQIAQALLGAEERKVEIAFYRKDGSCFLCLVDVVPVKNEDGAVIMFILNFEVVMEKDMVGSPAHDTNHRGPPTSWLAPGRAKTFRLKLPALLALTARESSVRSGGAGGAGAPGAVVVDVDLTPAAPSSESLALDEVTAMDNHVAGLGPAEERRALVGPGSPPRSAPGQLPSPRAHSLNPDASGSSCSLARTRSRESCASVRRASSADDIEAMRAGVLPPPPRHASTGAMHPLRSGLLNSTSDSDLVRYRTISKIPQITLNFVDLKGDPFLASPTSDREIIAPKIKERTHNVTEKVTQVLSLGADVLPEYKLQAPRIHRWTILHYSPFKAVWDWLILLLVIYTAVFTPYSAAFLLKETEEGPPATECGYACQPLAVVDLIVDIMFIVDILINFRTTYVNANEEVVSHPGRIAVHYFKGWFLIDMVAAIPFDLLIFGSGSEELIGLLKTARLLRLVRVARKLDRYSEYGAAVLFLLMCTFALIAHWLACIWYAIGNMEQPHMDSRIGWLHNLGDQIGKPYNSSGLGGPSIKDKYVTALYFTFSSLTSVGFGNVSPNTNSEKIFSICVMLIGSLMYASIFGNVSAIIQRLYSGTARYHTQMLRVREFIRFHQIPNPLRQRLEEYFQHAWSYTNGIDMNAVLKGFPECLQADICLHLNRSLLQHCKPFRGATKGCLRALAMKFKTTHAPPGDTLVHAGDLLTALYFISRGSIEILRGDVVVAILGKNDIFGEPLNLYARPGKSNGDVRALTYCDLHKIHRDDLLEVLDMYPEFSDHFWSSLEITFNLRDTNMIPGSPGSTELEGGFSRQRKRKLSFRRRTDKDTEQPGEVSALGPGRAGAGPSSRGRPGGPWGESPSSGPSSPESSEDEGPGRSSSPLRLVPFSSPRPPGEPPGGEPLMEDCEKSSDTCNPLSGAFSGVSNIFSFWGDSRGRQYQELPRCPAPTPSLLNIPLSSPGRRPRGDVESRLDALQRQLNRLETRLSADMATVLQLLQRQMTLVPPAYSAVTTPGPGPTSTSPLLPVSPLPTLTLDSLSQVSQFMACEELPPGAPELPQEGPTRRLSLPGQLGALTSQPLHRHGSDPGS

SMILES | hERG current change (%, negative = inhibition) at 10uM [%]
O=S(=O)(/N=C(/Nc1cccc2ccccc12)c1ccccc1)c1ccc(F)cc1 | 17.1
COc1cccc(NS(=O)(=O)c2cc(C)ccc2OC)c1 | 14.7
COc1ccc(/C=C2\SC(=S)N(CCCC(=O)Nc3ccc(O)cc3)C2=O)cc1 | -1.7
O=C(O)C1CCN(c2nc(-c3ccccc3)c3cc(Br)ccc3n2)CC1 | 2.45
CCOC(=O)C1C(c2ccc(O)c(OC)c2)NC(=S)NC1(O)C(F)(F)F (stereo not drawn) | 1.84
O=C(CSc1nncs1)NC(=O)NCc1ccccc1 | 4.47
FCCCOc1ccc(-c2ccnc3ncnn23)cc1 | 7.21
COc1cccc(-c2ccc(NC(=O)C3CCCN(Cc4cnn(C)c4)C3)cc2)c1 (stereo not drawn) | -37
Cc1cc2c(=O)n(CC(=O)NCC(=O)N3CCN(Cc4ccccc4)CC3)cnc2s1 | 8.01
COc1ccccc1Oc1ncnc2c1oc1ccccc12 | 8.62
O=c1[nH]c(C2CCCN(S(=O)(=O)c3cccc(Cl)c3)C2)nc2c1nnn2Cc1ccc2c(c1)OCCO2 (stereo not drawn) | 10.9
O=C(NCN1CCOCC1)c1cnccn1 | 16.4
COc1ccc(NC(=O)c2oc3ccccc3c2NC(=O)C2CC2)c(OC)c1 | 14.5
FC(F)Sc1ccc(NC(=S)NCC2CCCCC2)cc1 | 4.42
Cc1cccc(N2CCN(C(=O)c3ccccc3OCc3c(C)noc3C)CC2)c1C | -37.6
Cc1nn(Cc2ccc(Cl)cc2)c(C)c1NC(=O)/C=C/c1cnn(C)c1 | -17
CCN1CN(CCc2ccccc2)CNC1=S | 5.61
Cc1cc(C)c(-n2c(C)cc(/C=C3/NC(=O)NC3=O)c2C)c(C)c1 | -9.75
COC(=O)c1ccc(-c2noc(CN(C)CC3CCCCO3)n2)cc1 (stereo not drawn) | 11.3
COc1cc(/C=C/C(=O)NC2CCCCC2)cc(OC)c1OC | 6.84
O=C(CCN1C(=O)C2C3C=CC(C3)C2C1=O)Nc1ccccn1 (stereo not drawn) | 1.18
O=C(c1cc(-c2cccc(Cl)c2)on1)N1CCN(c2ccccc2)CC1 | 5.78
CC1CCN(S(=O)(=O)c2cccc(-c3cn4cc(Cl)ccc4n3)c2)CC1 | -5.86

SMILES | hERG current change (%, negative = inhibition) at 10uM [%]
O=C(CSc1nnc(-c2ccncc2)n1Cc1ccco1)Nc1nccs1 | -27
CC(=O)Nc1ccc(Nc2cc(C(C)C)nc3c(-c4ccccc4)c(C)nn23)cc1 | 8.28
O=C(CSc1nnc(CCCN2C(=O)c3cccc4cccc(c34)C2=O)n1-c1ccccc1)N1CCCCC1 | -38.2
COc1cccc(-c2nc(CS(=O)(=O)CC(=O)NCCCN3C(C)CCCC3C)c(C)o2)c1 (stereo not drawn) | 4.82
COc1ccc(CCNC(=O)C(=O)NCC2CCCN2S(=O)(=O)c2cc(C)ccc2C)cc1 (stereo not drawn) | -26.9
COc1ccc(C(=O)N2CCCN(C)CC2)c(OC)c1 | -5.24
O=C(Nc1nc2cc3c(cc2s1)OCCO3)c1ccc([N+](=O)[O-])o1 | -8.07
COc1ccc(OC)c(N2Cc3ccccc3C2)c1 | 12
Cc1cccc(N(CC(=O)NCCSCc2ccccc2)S(C)(=O)=O)c1C | -17.4
COc1cccc(-c2sc3ccc(OC)cc3c2C#CCCO)c1 | -7.87
CCN1C(=O)C(C)S/C1=N\S(=O)(=O)c1ccc(Cl)s1 (stereo not drawn) | 13.5
O=C(N=C1SC2CS(=O)(=O)CC2N1c1ccc(F)cc1F)C1CC1 (stereo not drawn) | 2.47
COCCCN1C(=O)c2ccc(C(=O)OCC(=O)NCc3ccccc3OC)cc2C1=O | -3.94
COc1ccccc1N1CCN(C2CCCN(C(=O)CC(F)(F)F)C2)CC1 (stereo not drawn) | 12.4
O=C(Nc1cccc(Cl)c1)Nc1ccccc1-n1ccnc1 | -18.4
Cc1cc(C)c(-n2c(SCCS(=O)(=O)c3ccc(F)cc3)n[nH]c2=O)c(C)c1 | 5.41
O=C1N(c2ccc(Cl)cc2)C(c2cccnc2)N2CCCN12 (stereo not drawn) | 8.15
NC(=O)C1CCN(C(=O)c2cc3n(n2)C(C(F)(F)F)CC(c2ccco2)N3)CC1 (stereo not drawn) | 14.8
O=C(N/N=C/c1c(O)n(CCc2ccccc2)c(=O)[nH]c1=O)c1ccccc1 | 4.38
COc1cccc(NS(=O)(=O)c2ccc(Br)s2)c1 | -12.6
Cc1nc(NC(=O)CSc2nnc(-c3ccc4c(c3)OCO4)o2)c(Cl)cc1Cl | -17.2
CCC(C)Nc1nc(N)c([N+](=O)[O-])c(N2CCCCCC2)n1 (stereo not drawn) | 10.1
